Among all 75,000 compounds or so, about 20 (0.03%) were called active. The shares of active, inactive and inconclusive entries below differ from those in the screen. Calls come from the whole dose curve; as a rule, active = well fitted inhibition curve with a large enough effect; inconclusive = small, poorly fitted or top-dose-only effect; inactive = flat fitted curve, though single readings scatter. No potency is given beside an inconclusive call; the fits are too rough.
molecular target: Caspase-1 (Homo sapiens) (UniProt P29466); test: qHTS Assay for Allosteric/Competitive Inhibitors of Caspase-1; details: Caspase-1 enzyme, Ac-WEHD-AFC fluorogenic rate; series mostly up to 57.5 µM
Potency is the fitted concentration of half-maximal effect; tags give direction and shape of the fitted curve or compound fluorescence and quenching.

Row | Structure (SMILES) | Potency
1 | O=C1C=CC2=C3c4cc(O)c(O)cc4CC3(O)COC2=C1O (centres undefined) | inconclusive [inhibitor, partial curve]
2 | COc1ccc2c(Cc3c4ccccc4cc4ccccc34)cncc2c1O | inconclusive [inhibitor, partial curve]
3 | O=c1c(CCc2ccccc2)nc2cnc(N3CCNCC3)nc2n1CCc1ccccc1 | inconclusive [fluorescent]
4 | COc1ccccc1C1C=C(c2ccccc2)Nc2nnnn21 (centres undefined) | inconclusive [inhibitor, single point]
5 | COc1ccc(-c2ccc(-c3noc(C4CCCCC4)n3)c(OC)n2)cc1 | inconclusive [inhibitor, single point]
6 | O=c1c(O)cc(C2Oc3cc(O)cc(O)c3CC2O)cc2c(C3Oc4cc(O)cc(O)c4CC3O)cc(O)c(O)c12 (centres undefined) | inconclusive [inhibitor, partial curve]
7 | Cn1c(=O)c2cc(NC(=O)c3ccccc3Cl)c(=O)oc2n(C)c1=O | inactive
8 | CCCOc1nc2c(c(=O)n(C)c(=O)n2C)n1Cc1cccc2ccccc12 | inactive
9 | CCOC(=O)c1cnc2ccc(C(=O)OC)cc2c1NCc1ccco1 | inactive
10 | Cc1ccc2cc(C(c3nnnn3CC3CCCO3)N3CCc4ccccc4C3)c(=O)[nH]c2c1 (centres undefined) | inconclusive [inhibitor, single point]
11 | CCCn1c(O)c(CN2CCCCC2)c(C)c(C#N)c1=O | inconclusive [inhibitor, partial curve]
12 | Cc1nn2c(-c3ccccc3)c(-c3ccccc3)nc2[nH]c1=O | inconclusive [inhibitor, partial curve]
13 | CCNC(=O)N1c2ccc(OCC)cc2C(C)=CC1(C)C | inconclusive [inhibitor, partial curve]
14 | Cc1ccc(S(=O)(=O)Nc2nc3ccccc3nc2NCc2ccco2)cc1 | inconclusive [inhibitor, partial curve]
15 | OC(CCN1CCCC1)(c1ccccc1)C1CCCCC1 (centres undefined) | inactive
16 | N#CC1=C2SCN(Cc3ccccc3)CN2C(=O)CC1c1cccs1 (centres undefined) | inconclusive [inhibitor, single point]
17 | CCC(=O)Nc1ccc2nc(SCC(=O)N3CCCC3)sc2c1 | inconclusive [inhibitor, partial curve]
18 | CCOC(=O)COc1ccc2c(c1)C(=O)CC(C)(c1cccnc1)O2 (centres undefined) | inconclusive [inhibitor, partial curve]
19 | C(=N\n1cnnc1)/c1ccc(N2CCOCC2)s1 | inconclusive [inhibitor, partial curve]

Source: PubChem BioAssay AID900 (National Center for Advancing Translational Sciences (NCATS), 2007)
